# This is one part of the list.
# B1: AT1G15820(2) (Arabidopsis thaliana), Q9LMQ2 (protein)
# chain: MAMAVSGAVLSGLGSSFLTGGKRGATALASGVGTGAQRVGRKTLIVAAAAAQPKKSWIPAVKGGGNFLDPEWLDGSLPGDFGFDPLGLGKDPAFLKWYREAELIHGRWAMAAVLGIFVGQAWSGVAWFEAGAQPDAIAPFSFGSLLGTQLLLMGWVESKRWVDFFNPDSQSVEWATPWSKTAENFANYTGDQGYPGGRFFDPLGLAGKNRDGVYEPDFEKLERLKLAEIKHSRLAMVAMLIFYFEAGQGKTPLGALGL
# Experiments:
# Assay in all cases: glycan array binding signal (z-score within array); higher = stronger binding
# Details in all cases: glycan notation: IUPAC condensed, linker removed
# [1] = molecular target: GlcNAc(b1-3)Gal(b1-4)GlcNAc(b1-3)Gal(b1-4)GlcNAc(b1-3)Gal(b1-4)GlcNAc(b1-3)Gal(b1-4)GlcNAc(b1-2)[GlcNAc(b1-3)Gal(b1-4)GlcNAc(b1-3)Gal(b1-4)GlcNAc(b1-3)Gal(b1-4)GlcNAc(b1-3)Gal(b1-4)GlcNAc(b1-6)]Man(a1-6)[GlcNAc(b1-3)Gal(b1-4)GlcNAc(b1-3)Gal(b1-4)GlcNAc(b1-3)Gal(b1-4)GlcNAc(b1-3)Gal(b1-4)GlcNAc(b1-2)Man(a1-3)]Man(b1-4)GlcNAc(b1-4)[Fuc(a1-6)]GlcNAc
# Outline: (§1)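 Columns mapping to the same glycan were averaged after glycan names were converted to IUPAC-condensed notation. The data come from 3228 arrays in the Consortium for Functional Glycomics database, limited to those with an available protein sequence. Binding is reported as a within-array Z-score averaged across arrays of one protein sequence and across linkers.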
# [2] = molecular target: GlcNAc(b1-3)Gal(b1-4)GlcNAc(b1-3)Gal(b1-4)GlcNAc(b1-3)GalNAc
# Outline: as §1
# [3] = molecular target: GlcNAc(b1-3)Gal(b1-4)GlcNAc(b1-3)GalNAc
# Outline: as §1
# [4] = molecular target: GlcNAc(b1-3)Gal(b1-4)GlcNAc(b1-3)[GlcNAc(b1-3)Gal(b1-4)GlcNAc(b1-3)]GalNAc
# Outline: as §1
# [5] = molecular target: GlcNAc(b1-3)Gal(b1-4)GlcNAc(b1-6)[Gal(b1-3)]GalNAc
# Outline: as §1
# [6] = molecular target: GlcNAc(b1-3)Gal(b1-4)GlcNAc(b1-6)[GlcNAc(b1-3)Gal(b1-3)]GalNAc
# Outline: as §1
# [7] = molecular target: GlcNAc(b1-3)Gal(b1-4)GlcNAc(b1-6)[GlcNAc(b1-3)]Gal(b1-4)GlcNAc
# Outline: as §1
# GlcNAc(b1-3)GalNAc = molecular target: GlcNAc(b1-3)GalNAc
# Outline: as §1
# GlcNAc(b1-3)Man = molecular target: GlcNAc(b1-3)Man
# Outline: as §1
# [8] = molecular target: GlcNAc(b1-3)[GlcNAc(b1-4)][GlcNAc(b1-6)]GlcNAc
# Outline: as §1
# [9] = molecular target: GlcNAc(b1-3)[GlcNAc(b1-6)]Gal(b1-4)GlcNAc
# Outline: as §1
# [10] = molecular target: GlcNAc(b1-3)[GlcNAc(b1-6)]GalNAc
# Outline: as §1
# [11] = molecular target: GlcNAc(b1-4)Gal(b1-4)GlcNAc
# Outline: as §1
# GlcNAc(b1-4)GlcNAc = molecular target: GlcNAc(b1-4)GlcNAc
# Outline: as §1
# [12] = molecular target: GlcNAc(b1-4)GlcNAc(b1-4)GlcNAc
# Outline: as §1
# [13] = molecular target: GlcNAc(b1-4)GlcNAc(b1-4)GlcNAc(b1-4)GlcNAc(b1-4)GlcNAc
# Outline: as §1
# [14] = molecular target: GlcNAc(b1-4)GlcNAc(b1-4)GlcNAc(b1-4)GlcNAc(b1-4)GlcNAc(b1-4)GlcNAc
# Outline: as §1
# [15] = molecular target: GlcNAc(b1-4)[GlcNAc(b1-6)]GalNAc
# Outline: as §1
# [16] = molecular target: GlcNAc(b1-6)Gal(b1-4)GlcNAc
# Outline: as §1
# GlcNAc(b1-6)GalNAc = molecular target: GlcNAc(b1-6)GalNAc
# Outline: as §1
# [17] = molecular target: GlcNAc6S(b1-3)Gal(b1-4)GlcNAc
# Outline: as §1
# Kdn(a2-3)Gal(b1-3)GalNAc = molecular target: Kdn(a2-3)Gal(b1-3)GalNAc
# Outline: as §1
# Kdn(a2-3)Gal(b1-3)GlcNAc = molecular target: Kdn(a2-3)Gal(b1-3)GlcNAc
# Outline: as §1
# Kdn(a2-3)Gal(b1-4)Glc = molecular target: Kdn(a2-3)Gal(b1-4)Glc
# Outline: as §1
# Kdn(a2-3)Gal(b1-4)GlcNAc = molecular target: Kdn(a2-3)Gal(b1-4)GlcNAc
# Outline: as §1
# [18] = molecular target: Kdn(a2-3)Gal(b1-4)[Fuc(a1-3)]GlcNAc
# Outline: as §1
# Kdn(a2-6)Gal(b1-4)GlcNAc = molecular target: Kdn(a2-6)Gal(b1-4)GlcNAc
# Outline: as §1
# [19] = molecular target: Man(a1-2)Man(a1-2)Man(a1-3)Man
# Outline: as §1
# [20] = molecular target: Man(a1-2)Man(a1-2)Man(a1-6)[Man(a1-3)]Man
# Outline: as §1
# Man(a1-2)Man(a1-3)Man = molecular target: Man(a1-2)Man(a1-3)Man
# Outline: as §1
# [21] = molecular target: Man(a1-2)Man(a1-3)[Man(a1-2)Man(a1-6)]Man
# Outline: as §1
# [22] = molecular target: Man(a1-2)Man(a1-3)[Man(a1-2)Man(a1-6)]Man(a1-6)[Man(a1-2)Man(a1-2)Man(a1-3)]Man
# Outline: as §1
# [23] = molecular target: Man(a1-2)Man(a1-3)[Man(a1-2)Man(a1-6)]Man(a1-6)[Man(a1-2)Man(a1-2)Man(a1-3)]Man(b1-4)GlcNAc(b1-4)GlcNAc
# Outline: as §1
# [24] = molecular target: Man(a1-2)Man(a1-3)[Man(a1-6)]Man(a1-6)[Man(a1-2)Man(a1-3)]Man(b1-4)GlcNAc(b1-4)GlcNAc
# Outline: as §1
# [25] = molecular target: Man(a1-2)Man(a1-6)[Man(a1-3)]Man(a1-6)[Man(a1-2)Man(a1-2)Man(a1-3)]Man
# Outline: as §1
# [26] = molecular target: Man(a1-2)Man(a1-6)[Man(a1-3)]Man(a1-6)[Man(a1-2)Man(a1-2)Man(a1-3)]Man(b1-4)GlcNAc(b1-4)GlcNAc
# Outline: as §1
# Man(a1-3)[Man(a1-6)]Man = molecular target: Man(a1-3)[Man(a1-6)]Man
# Outline: as §1
binder,measurement,setting,value
B1,glycan array binding signal (z-score),[1],-0.086
same,glycan array binding signal (z-score),[2],-0.536
same,glycan array binding signal (z-score),[3],-0.637
same,glycan array binding signal (z-score),[4],1.33
same,glycan array binding signal (z-score),[5],-0.16
same,glycan array binding signal (z-score),[6],-0.409
same,glycan array binding signal (z-score),[7],-0.641
same,glycan array binding signal (z-score),GlcNAc(b1-3)GalNAc,-0.211
same,glycan array binding signal (z-score),GlcNAc(b1-3)Man,-0.523
same,glycan array binding signal (z-score),[8],-0.856
same,glycan array binding signal (z-score),[9],0.207
same,glycan array binding signal (z-score),[10],-0.376
same,glycan array binding signal (z-score),[11],-0.044
same,glycan array binding signal (z-score),GlcNAc(b1-4)GlcNAc,0.104
same,glycan array binding signal (z-score),[12],-0.425
same,glycan array binding signal (z-score),[13],0.024
same,glycan array binding signal (z-score),[14],0.044
same,glycan array binding signal (z-score),[15],-0.387
same,glycan array binding signal (z-score),[16],-0.467
same,glycan array binding signal (z-score),GlcNAc(b1-6)GalNAc,-0.451
same,glycan array binding signal (z-score),[17],0.141
same,glycan array binding signal (z-score),Kdn(a2-3)Gal(b1-3)GalNAc,0.077
same,glycan array binding signal (z-score),Kdn(a2-3)Gal(b1-3)GlcNAc,0.161
same,glycan array binding signal (z-score),Kdn(a2-3)Gal(b1-4)Glc,-0.157
same,glycan array binding signal (z-score),Kdn(a2-3)Gal(b1-4)GlcNAc,0.077
same,glycan array binding signal (z-score),[18],-0.243
same,glycan array binding signal (z-score),Kdn(a2-6)Gal(b1-4)GlcNAc,-0.581
same,glycan array binding signal (z-score),[19],-0.608
same,glycan array binding signal (z-score),[20],-0.495
same,glycan array binding signal (z-score),Man(a1-2)Man(a1-3)Man,-0.176
same,glycan array binding signal (z-score),[21],-0.448
same,glycan array binding signal (z-score),[22],-0.689
same,glycan array binding signal (z-score),[23],-0.295
same,glycan array binding signal (z-score),[24],-0.442
same,glycan array binding signal (z-score),[25],-0.391
same,glycan array binding signal (z-score),[26],-0.821
same,glycan array binding signal (z-score),Man(a1-3)[Man(a1-6)]Man,-0.612

# Reference: the supplement of paper PMC8728848
